Screen size: about 310,000 compounds; about 18,000 (5.8%) were called active. The shares of active, inactive and inconclusive entries below differ from those in the screen. The call rests on the fitted dose curve; in most records, active means well fitted inhibition curve with a large enough effect; inconclusive means small, poorly fitted or top-dose-only effect, or another doubt; inactive means no such curve, though single readings can be large or run the other way. No potency is given beside an inconclusive call; the fits are too rough.
Assay: Primary qHTS for delayed death inhibitors of the malarial parasite plastid, 48 hour incubation
Details: P. falciparum luciferase growth in erythrocytes; series mostly up to 28.7 µM; activity change, negative = inhibition: at the top concentration
Summary of the method: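 Luciferase-expressing parasites in RBCs, 2% Hct / 0.1% parasitemia final; RPMI 1640 + 0.5% Albumax; 37 C, 5% CO2, one generation; luminescence read-out, lower signal = inhibition.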
In the case of CC(=O)c1ccc(NC(=O)c2cc(CC(C)C)nc3ccccc23)cc1, the Potency is reported as inconclusive [inhibitor, single point]. With Oc1c(N=NC(=S)Nc2ccccc2F)c2ccccc2n1Cc1ccccc1 the Potency was inconclusive [inhibitor, partial curve]. For O=C(c1ccc2c(c1)OCO2)N1CCN(c2ccccc2)CC1, the Potency was inconclusive [inhibitor, single point]. With CN1CCN(S(=O)(=O)c2ccc(NS(=O)(=O)c3ccccc3)cc2)CC1 the “activity change, negative = inhibition” value was inactive: 7.69%. With CCCC1(C(=O)OCC)NC(c2ccc(OC)cc2OC)C2C(=O)N(c3ccccc3)C(=O)C21 (stereo unspecified) the Potency was inconclusive [inhibitor, partial curve, poor fit]. With O=C(NNc1nc2c(F)cc(F)cc2s1)c1ccccc1 the “activity change, negative = inhibition” value was inactive: -27.3%. With Cc1ccccc1-n1c(SCC(=O)N2CCN(c3ccccn3)CC2)nnc1N1CCOCC1 the Potency was inconclusive [inhibitor, single point]. For O=C(NCCCN1CCCC1=O)c1ccc(NS(=O)(=O)c2ccc(F)cc2)cc1, the “activity change, negative = inhibition” value was inactive: 7.8%. With O=C(c1ccccc1)c1c[nH]c2cc3c(cc2c1=O)OCO3 the “activity change, negative = inhibition” value was inactive: -2.54%. For O=C(CCNC(=O)c1ccccc1)N=Nc1c(O)[nH]c2ccccc12, the “activity change, negative = inhibition” value was inactive: 10.8%. For CN1CCN(c2cc(N3CCc4ccccc4C3)c(F)cc2[N+](=O)[O-])CC1, the Potency was inconclusive [inhibitor, single point]. In the case of COc1cccc(CN(C)C(=O)CNC(=O)c2ccc(-c3ccccc3)cc2)c1OC, the Potency is reported as inconclusive [inhibitor, full curve]. With Cc1nc(C(C)(C)O)n(-c2ccccc2)n1 the “activity change, negative = inhibition” value was inactive: 13.2%. In the case of O=C(NC1=C(Nc2ccc(F)cc2)C(=O)c2ccccc2C1=O)c1ccc(Cl)cc1, the Potency is reported as active: 0.522 µM. In the case of Cc1ccc(C)c(NC(=O)CN(C)C(=O)c2cc3c(s2)CCCCC3)c1, the Potency is reported as inconclusive [inhibitor, single point]. With O=C(CCS(=O)(=O)c1cc(Br)cc2c1N(C(=O)C1CC1)CC2)NCC1CCCO1 (stereo unspecified) the Potency was inconclusive [inhibitor, single point]. For O=c1c2c([nH]c3ccccc13)CCCCC2, the Potency was active: 1.65 µM. With COc1ccc(OC)c(S(=O)(=O)N2CCN(c3c(C)cccc3C)CC2)c1 the Potency was inconclusive [inhibitor, single point]. In the case of Cc1ccc(-n2nc3c(=O)n(CCCC(=O)NCCN4CCN(C)CC4)nc(C)c3c2C)cc1, the Potency is reported as inconclusive [inhibitor, partial curve]. In the case of CCC(C)[C@H]1CN=C(N)N1CCCc1cc(OC)c(OC)c(OC)c1 (stereo partly specified), the Potency is reported as active: 10.4 µM. In the case of CN(C)c1ccc(C(=O)NC2CCCc3ccccc32)cc1 (stereo unspecified), the Potency is reported as inconclusive [inhibitor, partial curve, poor fit]. For O=C(Cn1c(=O)n(Cc2ccc(F)cc2)c(=O)c2ccccc21)NCC1CCCO1 (stereo unspecified), the “activity change, negative = inhibition” value was inactive: -7.41%. In the case of COc1ccc(CNC(=O)c2ccc(CS(=O)(=O)Cc3ccccc3F)o2)cc1, the “activity change, negative = inhibition” value is reported as inactive: 17.4%. In the case of COc1ccc(NC(=O)c2cccc(OC(=S)N3CCOCC3)c2)cc1, the Potency is reported as inconclusive [inhibitor, single point]. With O=C(Nc1cccc(C(F)(F)F)c1)c1cncs1 the “activity change, negative = inhibition” value was inactive: -3.55%. For CCOC(=O)C1CCCN(C(=O)c2cn(CC(C)C)c(=O)c3cc(OC)c(OC)cc23)C1 (stereo unspecified), the Potency was inconclusive [inhibitor, single point]. For COCCC(=O)N1CCc2c([nH]c3ccccc23)C1C(C)(C)C (stereo unspecified), the Potency was inconclusive [inhibitor, partial curve]. With COc1ccc(-c2csc(N(CCCN(C)C)C(=O)c3cccs3)n2)cc1 the Potency was inconclusive [inhibitor, single point]. In the case of O=S(=O)(NC1CCN(S(=O)(=O)c2c(F)cccc2F)C1)c1ccc2c(c1)OCCO2 (stereo unspecified), the “activity change, negative = inhibition” value is reported as inactive: 0.822%. With N#C/C(=C(/O)COC(=O)c1cccnc1Cl)c1nc2ccccc2[nH]1 the “activity change, negative = inhibition” value was inactive: 30%. For COc1ccc(/C=C/c2nc3cc(-c4ccccc4)ccc3o2)cc1O, the Potency was inconclusive [inhibitor, single point]. For Cc1ccc(C)c(S(=O)(=O)N2CCCOC2CNC(=O)C(=O)NC2CC2)c1 (stereo unspecified), the “activity change, negative = inhibition” value was inactive: 1.05%. For CCCCN(CC)Cc1ccc(CNC(=S)Nc2cccc(F)c2)o1, the Potency was inconclusive [inhibitor, partial curve, poor fit]. With CSc1ccc(S(=O)(=O)Nc2ccc3c4c(cccc24)CC3)cc1 the Potency was inconclusive [inhibitor, partial curve, poor fit]. In the case of CCOc1ccc2nc3sc(C(=O)N4CCN(C)CC4)c(N)c3cc2c1, the Potency is reported as inconclusive [inhibitor, single point]. With CCN(CC)S(=O)(=O)c1ccc(N2CCOCC2)c(NC(=O)Cc2ccccc2)c1 the Potency was inconclusive [inhibitor, partial curve]. In the case of Cc1c(C(=O)N2CCN(C/C=C/c3ccccc3)CC2)oc2c(F)cccc12, the “activity change, negative = inhibition” value is reported as inactive: -12.2%. In the case of CCN(c1ccccc1)S(=O)(=O)c1cccc(C(=O)N(C)CCOc2ccccc2)c1, the “activity change, negative = inhibition” value is reported as inactive: -8.35%. For O=C(COC(=O)c1ccc(F)cc1F)Nc1cc(S(=O)(=O)N2CCOCC2)ccc1Cl, the “activity change, negative = inhibition” value was inactive: 35.7%. In the case of O=c1c([N+](=O)[O-])c[nH]c2ccccc12, the Potency is reported as inconclusive [inhibitor, partial curve, poor fit]. In the case of COC(=O)c1ccc(C)c(NC(=O)Cc2coc3cc(OC)ccc23)c1, the Potency is reported as inconclusive [inhibitor, partial curve]. With Cc1nc2oc3c(=O)[nH]cnc3c2c2c1COC(C)(C)C2 the Potency was inconclusive [inhibitor, single point]. For COc1ccccc1CCNCc1ccc(OC)c(OCc2ccccc2)c1, the “activity change, negative = inhibition” value was inactive: 0%. For CC1CN(c2ccccc2)CCN1Cc1nc(Cc2ccccc2)no1 (stereo unspecified), the “activity change, negative = inhibition” value was inactive: 54.7%. For CNc1nc(N)c([N+](=O)[O-])c(NCc2ccccc2)n1, the Potency was inconclusive [inhibitor, partial curve, poor fit]. For O=C(N/N=C/c1cccnc1)c1cccc(N2CCCC2=O)c1, the “activity change, negative = inhibition” value was inactive: 25.3%.

— PubChem BioAssay AID504832 (National Center for Advancing Translational Sciences (NCATS), 2011)
On the % scale 0 is the no-effect control and ±100 the full control effect; potency means the concentration at half of the fitted maximal effect; tags describe the fitted curve by direction and shape.
